In PubChem BioAssay AID258 (DTP/NCI, 2004):
Toxic doses and inconclusive results are not listed. Not every entry of the source has a single result; some have several. The other results are left out here. There may be further records. The values listed for one entry do not match, cause unknown; dose, time, organism, isomer or construct need not be as stated for each record.

System: CD2F1 mice, L1210 leukemia sc, survival T/C
Assay: NCI In Vivo Anticancer Drug Screen. Data for tumor model L1210 Leukemia (subcutaneous) in CD2F1 (CDF1) mice
Conditions: endpoint: median survival time, higher = longer survival
Protocol: The antitumor activity of compounds was measured in mice bearing transplantable tumors. Survival or tumor size were measured and the results are expressed as the measurement made in the treated group (T) divided by the measurement made in the vehicle treated control group (C). The tumor model used in this assay is L1210 Leukemia (subcutaneous) in CD2F1 (CDF1) mice

With `CC(CN1CC(=O)NC(=O)C1)N1CC(=O)NC(=O)C1` (centres undefined) the T/C (dose: 60.0 mg/kg/injection, schedule: Q01DX009 (ip), vehicle: saline with Tween-80) was 113 % of control and 186 % of control and the T/C (dose: 120.0 mg/kg/injection, schedule: Q01DX009 (sc), vehicle: saline with Tween-80) was 113 % of control, 164 % of control, 165 % of control.

`Nc1ncn(C2OC(CO)C(O)C2O)c(=O)n1` (centres undefined) was tested, and the T/C (dose: 1.6 mg/kg/injection, schedule: Q01DX009 (sc), vehicle: saline) was 119 % of control, 157 % of control, 168 % of control and the T/C (dose: 7.2 mg/kg/injection, schedule: Q01DX009 (sc), vehicle: saline) was 95 % of control, 151 % of control, 155 % of control.

For `O=C1c2ccccc2C(=O)c2c(NCCNCCO)ccc(NCCNCCO)c21`, the T/C (dose: 8.0 mg/kg/injection, schedule: Q01DX009 (sc), vehicle: Klucel (hydroxypropylcellulose) (HPC)) was 123 % of control and 150 % of control and the T/C (dose: 16.0 mg/kg/injection, schedule: Q01DX009 (ip), vehicle: saline) was 108 % of control and 151 % of control.

With `Nc1nc2c(c(=O)[nH]1)NC(CCNc1ccc(C(=O)NC(CCC(=O)O)C(=O)O)cc1)CN2` (centres undefined) the T/C (dose: 400.0 mg/kg/injection, schedule: Q01DX Z (ip), vehicle: other) was 115 % of control and 150 % of control.

In the case of `CC1CCC(NC(=O)N(CCCl)N=O)CC1` (centres undefined), the T/C (dose: 32.0 mg/kg/injection, schedule: Q01DX009 (ip), vehicle: saline + alcohol) is reported as 108 % of control and 168 % of control.

In the case of `CC(=O)OC1COC(NC(=O)N(CCCl)N=O)C(OC(C)=O)C1OC(C)=O` (centres undefined), the T/C (dose: 6.0 mg/kg/injection, schedule: Q01DX009 (ip), vehicle: saline with Tween-80) is reported as 118 % of control and 175 % of control.
